From PubChem BioAssay AID2546 (National Center for Advancing Translational Sciences (NCATS), 2010)
Out of some 310,000 compounds screened, about 11,000 (3.5%) were called active. Inconclusive means that the source gave no clear call. Such entries were picked first, then a sample of the others. Calls come from the whole dose curve; as a rule, active = well fitted inhibition curve with a large enough effect; inconclusive = small, poorly fitted or top-dose-only effect, or effect the other way; inactive = flat fitted curve, though single readings scatter. Potencies of inconclusive entries are left out as doubtful fits.
% is set by controls: 0 for no effect and ±100 for the full control effect; potency is the fitted concentration of half-maximal effect; tags give direction and shape of the fitted curve.

Assay: VP16 counterscreen qHTS for inhibitors of ROR gamma transcriptional activity;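 note: Gal4-VP16 expression switched on by copper sulfate through the metallothionein promoter; nearly all actives have a fitted effect of over 50% in size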
Settings: Drosophila S2 Gal4-VP16 UAS-luciferase, luminescence, 20 h; activity, negative = inhibition: at 53.6 µM (top of the series)
In the case of `CN(C)Cc1nc2c([nH]1)c(=O)n(C)c(=O)n2C`, the “activity, negative = inhibition” value is reported as inactive: -16.6%.
In the case of `CC1(C)Cc2ccccc2-c2nnc(-c3ccc4ccccc4n3)n21`, the “activity, negative = inhibition” value is reported as inactive: -1.19%.
With `O=C(Nc1cccn(Cc2c(F)cccc2Cl)c1=O)NC1CCCCC1` the “activity, negative = inhibition” value was inactive: -10.2%.
With `O=C(CSc1nnc(NCc2ccccc2)s1)c1ccco1` the Potency was inconclusive [inhibitor, partial curve].
For `O=C(CSc1nnnn1C1CCCCC1)N1CCN(C(=O)c2ccco2)CC1`, the Potency was active: 7.94 µM.
In the case of `COc1cc2cc(CN(CCc3cccc(C)c3)C(=S)NCCCN(C)C)c(=O)[nH]c2cc1OC`, the “activity, negative = inhibition” value is reported as inactive: -8.71%.
In the case of `Cc1ccc(C2(CCN)CCOC(C(C)C)C2)cc1` (stereo not drawn), the “activity, negative = inhibition” value is reported as inactive: 3.08%.
With `O=C(COc1ccccc1)N1CCN(C(=O)c2ccc([N+](=O)[O-])cc2)CC1` the Potency was inconclusive [inhibitor, single point].
For `Cc1ccc(OCC(=O)Nc2ccc(C)c(S(=O)(=O)N3CCCCC3)c2)c([N+](=O)[O-])n1`, the Potency was inconclusive [inhibitor, partial curve, poor fit].
With `O=S(=O)(NCc1cccs1)c1cccc(S(=O)(=O)N2CCCCC2)c1` the Potency was inconclusive [inhibitor, single point].
In the case of `CCNS(=O)(=O)c1ccc(CCC(=O)N2CCN(c3cc(Cl)ccc3C)CC2)cc1`, the Potency is reported as inconclusive [inhibitor, single point].
For `Cc1cccc(NC(=O)c2ccc(C(=O)Nc3cccc(C)c3)nc2)c1`, the Potency was inconclusive [inhibitor, partial curve].
For `C/C(=N\S(=O)(=O)c1ccc(C)cc1)N1CCCCC1`, the “activity, negative = inhibition” value was inactive: -3.78%.
With `CCN1CCN(C2=C(NS(=O)(=O)c3ccc(NC(C)=O)cc3)C(=O)c3ccccc3C2=O)CC1` the Potency was inconclusive [inhibitor, single point].
For `CCCCCC(C)n1[nH]c(=O)c2c(C)cc(C)nc21` (stereo not drawn), the Potency was inconclusive [inhibitor, single point].
In the case of `COCCN(CCOC)C(=S)Nc1ccccc1`, the Potency is reported as inconclusive [activator, single point].
In the case of `CC(C)(C)OC(=O)N1CCN(c2ccc([N+](=O)[O-])cc2)CC1`, the “activity, negative = inhibition” value is reported as inactive: -1.41%.
With `CN1CCN(c2ccc(Nc3c4ccccc4nc4ccccc34)cc2)CC1` the Potency was active: 10 µM.
For `O=C(C[n+]1ccc(C(=O)N/N=C/c2ccc(OCc3ccccc3)cc2)cc1)c1ccccc1`, the Potency was inconclusive [inhibitor, single point].
With `COc1ccc(C(=O)NC(=S)Nc2ccc(S(=O)(=O)Nc3cc(OC)nc(OC)n3)cc2)cc1` the “activity, negative = inhibition” value was inactive: -2.59%.
With `N#C/C(=N\Nc1ccc(F)cc1)C(=N)N1CCCCC1` the Potency was inconclusive [inhibitor, full curve, poor fit].
For `COc1ccccc1OCC(=O)NNC(=S)NC(=O)c1ccco1`, the Potency was inconclusive [inhibitor, single point].
In the case of `O=C(Nc1ccc(O)c(-c2nc3ccccc3o2)c1)C1(c2ccccc2)CCCC1`, the Potency is reported as active: 8.91 µM.
For `Cc1cccc(/C=N/NC(=O)c2ccc(F)cc2)n1`, the Potency was inconclusive [inhibitor, single point].
In the case of `COc1ccc(-c2n[nH]c(=S)n2Cc2ccco2)cc1`, the Potency is reported as inconclusive [inhibitor, single point].
For `COc1cc(NC(=S)NC(=O)c2ccccc2C)ccc1NC(=O)c1cccs1`, the Potency was active: 8.91 µM.
For `CCS(=O)(=O)C1=NN2C(=N)/C(=C\c3ccc(OCCOc4cccc(OC)c4)c(OC)c3)C(=O)N=C2S1`, the “activity, negative = inhibition” value was inactive: -24.2%.
With `COc1cc(NC(=O)Cc2cccc3ccccc23)c(C(=O)O)cc1OC` the “activity, negative = inhibition” value was inactive: -29.9%.
For `Cc1ccccc1C(=O)NCCc1nnc(SCC(=O)Nc2nc(-c3ccccc3)cs2)n1C`, the Potency was inconclusive [activator, single point].
In the case of `O=C(NCCc1ccc(Cl)cc1)C1CCN(S(=O)(=O)c2ccc(Br)s2)CC1`, the “activity, negative = inhibition” value is reported as inactive: 0.772%.
In the case of `CN1/C(=C\C(=O)Nc2ccc(Cl)cc2)C(C)(C)c2ccccc21`, the Potency is reported as inconclusive [inhibitor, single point].
With `Cc1ccc(C(=O)OCCc2c(C)[nH]n(-c3ccccc3)c2=O)cc1` the “activity, negative = inhibition” value was inactive: -1.6%.
In the case of `CCOc1cc(C(=S)N2CCOCC2)ccc1OC(=O)/C=C/c1ccc(OC)c(OC)c1`, the “activity, negative = inhibition” value is reported as inactive: 1.85%.
In the case of `COc1ccc(NC(=O)CC2C(=O)N(C)C(=S)N2CCc2ccc(F)cc2)cc1` (stereo not drawn), the “activity, negative = inhibition” value is reported as inactive: 0.376%.
With `O=C(CCCN1C(=O)/C(=C/c2ccccc2)SC1=S)Nc1cccc(O)c1` the Potency was active: 7.08 µM.
In the case of `O=C(Nc1ccccc1)c1ccc(-c2ccc([N+](=O)[O-])cc2)o1`, the “activity, negative = inhibition” value is reported as inactive: 24.6%.
With `COC(=O)[C@@]1(Cc2ccc(OC)cc2)[C@H]2c3cc(C(=O)N4CCCC4)n(CCc4ccc(O)c(OC)c4)c3C[C@H]2CN1C(=O)c1ccccc1` the “activity, negative = inhibition” value was inactive: -1.55%.
In the case of `COCCNC(=S)NC12CC3CC(CC(C3)C1)C2`, the Potency is reported as active: 4.47 µM.
For `COc1cccc(Nc2ncc3nc(-c4ccc(Cl)cc4)c(=O)n(C4CC4)c3n2)c1`, the “activity, negative = inhibition” value was inactive: -6.93%.
For `Cc1cccc(C(=O)Oc2ccc(/C=N/O)cc2)c1`, the Potency was active: 2 µM.
With `CN(C)CCCN(C(=O)c1ccc2c(c1)OCCO2)c1nc2ccc(Cl)cc2s1` the Potency was inconclusive [inhibitor, partial curve, poor fit].
In the case of `NC(=S)N/N=C\c1c2ccccc2cc2ccccc12`, the Potency is reported as inconclusive [inhibitor, single point].
With `COc1ccc(C2CC(c3ccc(OC)c(OC)c3)=NN2S(C)(=O)=O)cc1` (stereo not drawn) the Potency was inconclusive [inhibitor, single point].
With `CCOc1ccc(-c2cc(C(=O)N/N=C(\C)c3cccnc3)c3ccccc3n2)c(OCC)c1` the Potency was inconclusive [inhibitor, single point].
In the case of `O=c1c2cccnc2n(-c2ccccc2)n1Cc1c(Cl)cccc1Cl`, the Potency is reported as inconclusive [inhibitor, single point].
In the case of `COc1ccc(/C(C)=N/NC(=O)c2nnn(-c3nonc3N)c2-c2cccs2)cc1OC`, the “activity, negative = inhibition” value is reported as inactive: 3.33%.
With `Cc1noc(C)c1-c1nc(NCCN2CCOCC2)c2ccccc2n1` the “activity, negative = inhibition” value was inactive: 5.91%.
In the case of `COc1ccc(CCNC(=O)COc2cc(O)c3c(c2)OC(C)(C)CC3=O)cc1OC`, the “activity, negative = inhibition” value is reported as inactive: -9.97%.
